Data as given in the supplement of paper PMC8728848.
The list shows a part of the results.

Experiments:
Assay in all cases: glycan array binding signal (z-score within array); higher = stronger binding
Settings in all cases: glycan notation: IUPAC condensed, linker removed
[1] = biological target: Neu5Ac(a2-8)Neu5Ac(a2-8)Neu5Ac(a2-8)Neu5Ac(a2-8)Neu5Ac(a2-8)Neu5Ac(a2-8)Neu5Ac(a2-8)Neu5Ac
Outline: (§1)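 Arrays were curated from the Consortium for Functional Glycomics database, 3228 in total, and kept only where the protein sequence was available. Binding is expressed as a within-array Z-score. This score was averaged across arrays of the same protein sequence at different concentrations or buffers and across linkers, and negative values can be read as non-binding.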

[2] = biological target: Neu5Ac(a2-8)Neu5Ac(a2-8)Neu5Ac(a2-8)Neu5Ac(a2-8)Neu5Ac(a2-8)Neu5Ac(a2-8)Neu5Ac(a2-8)Neu5Ac(a2-8)Neu5Ac
Outline: as §1

[3] = biological target: Neu5Ac(a2-8)Neu5Ac(a2-8)Neu5Ac(a2-8)Neu5Ac(a2-8)Neu5Ac(a2-8)Neu5Ac(a2-8)Neu5Ac(a2-8)Neu5Ac(a2-8)Neu5Ac(a2-8)Neu5Ac
Outline: as §1

[4] = biological target: Neu5Ac(a2-8)Neu5Gc(a2-3)Gal(b1-4)GlcNAc
Outline: as §1

[5] = biological target: Neu5Ac(a2-9)Neu5Ac(a2-3)Gal(b1-4)Glc
Outline: as §1

[6] = biological target: Neu5Ac(b1-6)GalNAc
Outline: as §1

[7] = biological target: Neu5Ac(b2-3)Gal(b1-4)Glc
Outline: as §1

[8] = biological target: Neu5Ac(b2-6)Gal(b1-4)Glc
Outline: as §1

[9] = biological target: Neu5Ac(b2-6)Gal(b1-4)GlcNAc
Outline: as §1

[10] = biological target: Neu5Ac(b2-6)GalNAc
Outline: as §1

[11] = biological target: Neu5Ac9Ac(a2-3)Gal(b1-3)GlcNAc
Outline: as §1

[12] = biological target: Neu5Ac9Ac(a2-3)Gal(b1-3)[Fuc(a1-4)]GlcNAc
Outline: as §1

[13] = biological target: Neu5Ac9Ac(a2-3)Gal(b1-4)GlcNAc
Outline: as §1

[14] = biological target: Neu5Ac9Ac(a2-3)Gal(b1-4)[Fuc(a1-3)]GlcNAc
Outline: as §1

[15] = biological target: Neu5Ac9Ac(a2-3)Gal(b1-4)[Fuc(a1-3)]GlcNAc(b1-3)Gal
Outline: as §1

[16] = biological target: Neu5Ac9Ac(a2-6)Gal(b1-4)GlcNAc
Outline: as §1

[17] = biological target: Neu5Ac9Me(a2-3)Gal(b1-4)Glc
Outline: as §1

[18] = biological target: Neu5Gc(a2-3)Gal(b1-3)GlcNAc
Outline: as §1

[19] = biological target: Neu5Gc(a2-3)Gal(b1-3)GlcNAc(b1-3)Gal(b1-4)Glc
Outline: as §1

[20] = biological target: Neu5Gc(a2-3)Gal(b1-3)[Fuc(a1-4)]GlcNAc
Outline: as §1

[21] = biological target: Neu5Gc(a2-3)Gal(b1-4)Glc
Outline: as §1

[22] = biological target: Neu5Gc(a2-3)Gal(b1-4)GlcNAc
Outline: as §1

[23] = biological target: Neu5Gc(a2-3)Gal(b1-4)GlcNAc(b1-3)Gal(b1-4)GlcNAc(b1-2)Man(a1-3)[Neu5Gc(a2-3)Gal(b1-4)GlcNAc(b1-3)Gal(b1-4)GlcNAc(b1-2)Man(a1-6)]Man(b1-4)GlcNAc(b1-4)GlcNAc
Outline: as §1

[24] = biological target: Neu5Gc(a2-3)Gal(b1-4)[Fuc(a1-3)]GlcNAc
Outline: as §1

[25] = biological target: Neu5Gc(a2-3)Gal(b1-4)[Fuc(a1-3)]GlcNAc(b1-3)Gal
Outline: as §1

[26] = biological target: Neu5Gc(a2-6)Gal(b1-3)GlcNAc(b1-3)Gal(b1-4)Glc
Outline: as §1

[27] = biological target: Neu5Gc(a2-6)Gal(b1-4)GlcNAc
Outline: as §1

[28] = biological target: Neu5Gc(a2-6)Gal(b1-4)GlcNAc(b1-2)Man(a1-3)[Neu5Gc(a2-6)Gal(b1-4)GlcNAc(b1-2)Man(a1-6)]Man(b1-4)GlcNAc(b1-4)GlcNAc
Outline: as §1

[29] = biological target: Neu5Gc(a2-6)GalNAc
Outline: as §1

[30] = biological target: Neu5Gc(a2-8)Neu5Ac(a2-3)Gal(b1-4)GlcNAc
Outline: as §1

[31] = biological target: Neu5Gc(a2-8)Neu5Gc(a2-3)Gal(b1-4)GlcNAc
Outline: as §1

[32] = biological target: Neu5Gc(a2-8)Neu5Gc(a2-3)Gal(b1-4)GlcNAc(b1-3)Gal(b1-4)GlcNAc
Outline: as §1

[33] = biological target: Neu5Gc(a2-8)Neu5Gc(a2-6)Gal(b1-4)GlcNAc
Outline: as §1

[34] = biological target: Neu5Gc(b2-6)Gal(b1-4)GlcNAc
Outline: as §1

[35] = biological target: Xyl(a1-6)Glc(b1-4)[Xyl(a1-6)]Glc(b1-4)[Xyl(a1-6)]Glc(b1-4)Glc
Outline: as §1

[36] = biological target: Xyl(b1-2)[Man(a1-3)][Man(a1-6)]Man(b1-4)GlcNAc(b1-4)GlcNAc
Outline: as §1

[37] = biological target: Xyl(b1-2)[Man(a1-3)][Man(a1-6)]Man(b1-4)GlcNAc(b1-4)[Fuc(a1-3)]GlcNAc
Outline: as §1

[38] = biological target: Xyl(b1-4)Xyl(b1-4)Xyl(b1-4)Xyl(b1-4)Xyl
Outline: as §1

[39] = biological target: Xyl(b1-4)Xyl(b1-4)Xyl(b1-4)Xyl(b1-4)Xyl(b1-4)Xyl
Outline: as §1

B1: CLEC5A (Homo sapiens), Q9NY25 (protein)
chain: MNWHMIISGLIVVVLKVVGMTLFLLYFPQIFNKSNDGFTTTRSYGTVSQIFGSSSPSPNGFITTRSYGTVCPKDWEFYQARCFFLSTSESSWNESRDFCKGKGSTLAIVNTPEKLKFLQDITDAEKYFIGLIYHREEKRWRWINNSVFNGNVTNQNQNFNCATIGLTKTFDAASCDISYRRICEKNAK
glycan array binding signal (z-score) [1]: -0.32 | glycan array binding signal (z-score) [2]: -0.32 | glycan array binding signal (z-score) [3]: -0.32 | glycan array binding signal (z-score) [4]: -0.242 | glycan array binding signal (z-score) [5]: -0.32 | glycan array binding signal (z-score) [6]: -0.523 | glycan array binding signal (z-score) [7]: -0.32 | glycan array binding signal (z-score) [8]: -0.32 | glycan array binding signal (z-score) [9]: -0.302 | glycan array binding signal (z-score) [10]: -0.184 | glycan array binding signal (z-score) [11]: -0.191 | glycan array binding signal (z-score) [12]: -0.32 | glycan array binding signal (z-score) [13]: -0.046 | glycan array binding signal (z-score) [14]: -0.32 | glycan array binding signal (z-score) [15]: -0.32 | glycan array binding signal (z-score) [16]: -0.229 | glycan array binding signal (z-score) [17]: -0.32 | glycan array binding signal (z-score) [18]: -0.114 | glycan array binding signal (z-score) [19]: -0.32 | glycan array binding signal (z-score) [20]: -0.194 | glycan array binding signal (z-score) [21]: -0.394 | glycan array binding signal (z-score) [22]: 0.007 | glycan array binding signal (z-score) [23]: -0.052 | glycan array binding signal (z-score) [24]: 0.039 | glycan array binding signal (z-score) [25]: -0.32 | glycan array binding signal (z-score) [26]: 0.066 | glycan array binding signal (z-score) [27]: 0.082 | glycan array binding signal (z-score) [28]: -0.32 | glycan array binding signal (z-score) [29]: -0.284 | glycan array binding signal (z-score) [30]: -0.121 | glycan array binding signal (z-score) [31]: -0.259 | glycan array binding signal (z-score) [32]: -0.123 | glycan array binding signal (z-score) [33]: -0.112 | glycan array binding signal (z-score) [34]: 0.916 | glycan array binding signal (z-score) [35]: 0.451 | glycan array binding signal (z-score) [36]: -0.32 | glycan array binding signal (z-score) [37]: -0.32 | glycan array binding signal (z-score) [38]: -0.32 | glycan array binding signal (z-score) [39]: -0.32
